Experimental data reported in PubChem BioAssay AID1030 (National Center for Advancing Translational Sciences (NCATS), 2008).
About 16,000 (7.3%) of roughly 220,000 compounds were called active. This list was built around the results that the source calls inconclusive (neither active nor inactive); the mix of calls is not that of the screen. Calls come from the whole dose curve; as a rule, active = well fitted inhibition curve with a large enough effect (not every such curve was filed as active); inconclusive = small, poorly fitted or top-dose-only effect, or another doubt; inactive = no such curve, though single readings can be large or run the other way. No potency is given beside an inconclusive call; the fits are too rough.

What follows are compounds tested against Aldehyde dehydrogenase 1A1 (Homo sapiens) (UniProt P00352) (assay: qHTS Assay for Inhibitors of Aldehyde Dehydrogenase 1 (ALDH1A1)). Conditions: Purified ALDH1A1, NADH fluorescence, propionaldehyde substrate; series mostly up to 75.3 µM; activity, negative = inhibition: at the top concentration.
Potency is the fitted concentration of half-maximal effect; tags give direction and shape of the fitted curve.
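Throughout, for activity, negative = inhibition: plate controls were no enzyme wells and a reference inhibitor.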

Sequence of UniProt P00352 (P00352 whole entry, looked up): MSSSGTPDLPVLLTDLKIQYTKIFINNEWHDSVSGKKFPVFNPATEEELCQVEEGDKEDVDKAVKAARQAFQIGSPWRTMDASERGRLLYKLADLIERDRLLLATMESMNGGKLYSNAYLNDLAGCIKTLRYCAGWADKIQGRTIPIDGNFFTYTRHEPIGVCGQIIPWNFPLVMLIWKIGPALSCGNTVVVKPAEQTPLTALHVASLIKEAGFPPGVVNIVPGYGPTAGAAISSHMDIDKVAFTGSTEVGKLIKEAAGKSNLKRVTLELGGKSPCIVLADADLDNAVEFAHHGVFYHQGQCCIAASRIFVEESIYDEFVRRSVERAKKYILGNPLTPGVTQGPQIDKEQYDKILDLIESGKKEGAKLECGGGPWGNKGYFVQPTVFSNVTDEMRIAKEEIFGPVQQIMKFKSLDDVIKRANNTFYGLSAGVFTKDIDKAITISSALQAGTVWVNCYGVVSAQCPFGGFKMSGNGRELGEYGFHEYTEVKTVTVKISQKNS

Compound	activity, negative = inhibition	Potency
NCCNS(=O)(=O)c1ccc(N)cc1	inactive: 6.12% [at 13.5 µM]	–
Cc1cccc(-n2ncc3c(N4CCCC4)ncnc32)c1	–	inconclusive [inhibitor, partial curve]
CCOc1ccc(C(=O)NC(=S)Nc2ccc(N3CCCCC3)cc2)cc1[N+](=O)[O-]	–	active: 11.2 µM
CC1=CC2=NC(=O)/C(=C\c3cccn3CCOc3ccc(C)c(C)c3)C(=N)N2O1	–	inconclusive [inhibitor, single point]
CC1Cc2ccccc2N1C(=O)CCS(=O)(=O)c1cccc2nonc12 (centres undefined)	–	inconclusive [inhibitor, single point]
O=C(Nc1nc2ccc(S(=O)(=O)N3CCOCC3)cc2s1)c1cccs1	–	inconclusive [inhibitor, partial curve]
CC(C)c1ccc(C2C3CSCC=C3C(C#N)=C(N)C2(C#N)C#N)cc1 (centres undefined)	–	active: 15.8 µM
Nn1nnc2ccccc21	–	inconclusive [inhibitor, single point]
CN1CCN(c2ncc3nc(-c4ccc(Cl)cc4)c(=O)n(C4CC4)c3n2)CC1	–	inconclusive [inhibitor, partial curve]
COc1cc(NC(=O)c2cc3c(C)nc4ccccc4c3o2)cc(OC)c1OC	inactive: 11.1%	–
Fc1ccc(-n2nnnc2-c2cnc(-c3cccs3)nc2C(F)(F)F)cc1	inactive: -10.6%	–
COc1ccccc1CCNC(=O)CSc1nnc2ccc(-c3cccnc3)nn12	–	inconclusive [inhibitor, single point]
Cc1ccc(OCn2c(=O)sc3ccccc32)cc1	–	inconclusive [inhibitor, single point]
COc1ccc(C2OC34CCCCC3C(C#N)(C#N)C2(C#N)C(=N)O4)cc1 (centres undefined)	–	inconclusive [inhibitor, partial curve]
O=C(COc1ccc2ccccc2c1)N1CCN(C(=O)c2ccco2)CC1	–	inconclusive [inhibitor, single point]
CC(=O)c1c(C)[nH]c(C(=O)CSc2nnc(-c3ccc(Cl)cc3)n2CC2CCCO2)c1C (centres undefined)	inactive: -12.6%	–
O=C(c1ccc(F)cc1)C1CCN(C(=O)NC2CCCCC2)CC1	–	active: 11.2 µM
Cc1ccccc1NC(=O)CSc1nc2n(n1)CCCCC2	inactive: -8.02%	–
Cc1cc(-c2ccc(Cl)cc2)n2nc(N)nc2n1	–	inconclusive [inhibitor, partial curve]
O=c1c2ccccc2nnn1CSc1nc2sc3c(c2c(=O)n1CC1CCCO1)CCC3 (centres undefined)	–	inconclusive [inhibitor, partial curve]
COc1cccc(NC(=O)CCNC(=O)c2ccccc2Cl)c1	–	inconclusive [inhibitor, single point]
S=c1[nH]nc(-c2cc(-c3ccccc3)n[nH]2)n1/N=C/c1ccc(Cl)cc1	inactive: -0.194%	–
Cc1cc(C)c(S(=O)(=O)N2CCCOC2CNC(=O)C(=O)NCCC2=CCCCC2)c(C)c1 (centres undefined)	–	inconclusive [inhibitor, single point]
COCC(C)N=C1NN=C(c2cc(C)n(Cc3ccccc3Cl)c2C)CS1 (centres undefined)	–	inconclusive [inhibitor, single point]
CCCN1C(=O)/C(=C/c2ccc3c(c2)OCO3)NC1=S	–	active: 2.24 µM

Compound	activity, negative = inhibition	Potency
CC(C)(C)Nc1oc(-c2ccccc2)nc1-c1cccc2ccccc12	–	inconclusive [inhibitor, full curve, poor fit]
CCOC(=O)c1cnc(-n2[nH]c(C)c(Cc3ccccc3)c2=O)[nH]c1=O	inactive: 5.55%	–
COc1ccc(NC(=O)c2cc(S(=O)(=O)N(Cc3ccccc3)c3ccccc3)ccc2Cl)cn1	–	inconclusive [inhibitor, partial curve]
Cc1nnc(SCC(=O)Nc2sc3c(c2C#N)CCCC3)[nH]c1=O	–	inconclusive [inhibitor, single point]
N#Cc1ccc(NC(=O)COC(=O)C2Cc3ccccc3CN2C(=O)c2ccccc2)cc1 (centres undefined)	inactive: 5.05%	–
CCOc1cc(NC(=S)Nc2cccc(OC)c2)c(OCC)cc1NC(=O)C(C)C	–	inconclusive [inhibitor, partial curve]
COC(=O)c1cccc(NC(=S)NCc2ccco2)c1	–	inconclusive [inhibitor, single point]
O=Cc1cccn1-c1ccc(O)cc1	inactive: -7.97%	–
CCCC(=O)Nc1cccc(-c2cn3cccnc3n2)c1	–	inconclusive [inhibitor, partial curve]
O=C1CCc2cc(S(=O)(=O)N3CCC(C(=O)NCCC4=CCCCC4)CC3)ccc2N1	–	inconclusive [inhibitor, partial curve]
O=C(COC(=O)C(Cc1ccccc1)NC(=O)c1ccc(Cl)cc1)c1ccc(Cl)cc1 (centres undefined)	–	inconclusive [inhibitor, single point]
CC(=O)c1ccc(NC(=O)C2CC(=O)N(Cc3ccccc3)C2)cc1 (centres undefined)	–	active: 14.1 µM
O=c1ccsn1Cc1ccccc1	–	inconclusive [inhibitor, partial curve]
CCCCN1C(=O)CC(Sc2ccccc2C(=O)O)C1=O (centres undefined)	–	inconclusive [inhibitor, partial curve]
Cc1ccccc1Cn1ccc(=NCc2ccccc2)cc1	inactive: 9.37%	–
Cc1ccc(S(=O)(=O)NCCSc2nnnn2-c2ccc(C(N)=O)cc2)cc1	–	inconclusive [inhibitor, single point]
O=C(CC1(O)C(=O)N(Cc2cccc3ccccc23)c2ccccc21)c1cccnc1 (centres undefined)	–	active: 0.112 µM
COc1cccc(-c2cc(N(C)Cc3ccco3)ncn2)c1	–	inconclusive [inhibitor, partial curve]
CC(C)Sc1n[nH]c2nc3c(c(=O)n12)C1(CCCC1)Cc1ccccc1-3	–	inconclusive [inhibitor, partial curve]
OC(Cn1nnc2ccccc21)Cn1c(C(F)(F)F)nc2ccccc21 (centres undefined)	–	inconclusive [inhibitor, single point]
Cc1cc(C)nc(OC(=O)c2ccc(Cl)cc2Cl)n1	inactive: -1.67%	–
O=C(NCC1CCCO1)C(c1cccs1)N(Cc1cccs1)C(=O)Cn1nnc(-c2cccs2)n1 (centres undefined)	–	active: 8.91 µM
COc1ccccc1Nc1ncc(-c2cccs2)s1	–	inconclusive [inhibitor, single point]
CCCNC(=O)N1N=C(c2ccc(N)cc2)c2cc3c(cc2[C@H]1C)OCO3	–	inconclusive [inhibitor, single point]
Cc1cc(C)nc(SCC(=O)c2cc3ccccc3oc2=O)n1	–	active: 14.1 µM

Compound	activity, negative = inhibition	Potency
CCn1cc(C(=O)O)c(=O)c2cc(F)c(N3CCN(S(=O)(=O)c4ccc5c(c4)OCCO5)CC3)cc21	–	inconclusive [inhibitor, single point]
Cc1ccccc1Nc1nc(N)nc(CN2C(=O)NC3(CCCCC3C)C2=O)n1 (centres undefined)	inactive: -14.5%	–
Cc1ccccc1NC(=S)NCCc1c[nH]c2ccccc12	inactive: -0.773%	–
COc1c(O)c(O)c2oc(-c3ccccc3)cc(=O)c2c1OC	–	inconclusive [inhibitor, partial curve]
Nc1ccc(C23CC4CC(CC(C4)C2)C3)cc1	–	inconclusive [inhibitor, single point]
CCNC(=O)/C(C#N)=C/c1c(N(Cc2ccccc2)Cc2ccccc2)nc2ccccn2c1=O	–	active: 15.8 µM
CCOC(=O)c1nn(-c2ccc(Cl)cc2)c2nnc(Cc3ccccc3)c(=O)n12	inactive: -3.2%	–
CCOC(=O)C1(CCCc2ccccc2)CCN(C(=O)c2cncs2)CC1	–	active: 5.62 µM
Cc1nc2sc(-c3ccccc3)cc2c(=O)n1/N=C/N(C)C	–	inconclusive [inhibitor, single point]
O=c1oc2ccccc2cc1-c1csc(NN=C2CCCCC2)n1	–	inconclusive [inhibitor, single point]
CCCCOC(=O)C1CCCC(C(=O)OCCCC)N1 (centres undefined)	inactive: 4.25%	–
CCC(C)(C)n1nnnc1C(c1cc2ccc(OC)cc2[nH]c1=O)N1CCN(C2CCCCC2)CC1 (centres undefined)	–	inconclusive [inhibitor, single point]
CCc1ccc([C@@H]2C[C@H]3CN(Cc4ccccc4OC)C(=O)[C@]34CCCN24)cc1	inactive: 0.926%	–
Cc1[nH]cnc1CSCc1ccc(F)cc1	inactive: 13.4%	–
S=c1[nH]nc(-c2cc(-c3ccco3)[nH]n2)n1-c1ccccc1Cl	–	active: 7.08 µM
CC(=O)Nc1nc(C)c(-c2csc(Nc3ccc(O)cc3)n2)s1	–	active: 25.1 µM
O=C(COC(=O)CCN1C(=O)/C(=C\C=C\c2ccccc2)SC1=S)Nc1cc(F)ccc1F	–	inconclusive [inhibitor, single point]
Cc1ccc(C)c(NC(=O)c2ccccc2Sc2ccc([N+](=O)[O-])cc2Cl)c1	inactive: 10.2%	–
Cc1ccc(/C=N/Nc2nnc(Cl)c3ccccc23)cc1	–	inconclusive [inhibitor, single point]
O=C1N/C(=N\N=C\c2cccs2)SC1Cc1cccc(Cl)c1 (centres undefined)	inactive: -8.18%	–
O=Cc1sc(N2CCOCC2)nc1-c1ccccc1	–	active: 8.91 µM
CC(=O)c1cccc(NC2c3ccccc3C(=O)N2Cc2ccc3c(c2)OCO3)c1 (centres undefined)	–	inconclusive [inhibitor, single point]
O=C(NCc1ccco1)C1CCN(Cc2ccc(F)cc2)CC1	inactive: -5.51%	–
Cc1nn(C(=O)c2nn(C)cc2[N+](=O)[O-])c(C)c1Br	inactive: 5.79%	–
